Assay results taken from PubChem BioAssay AID1508624 (National Center for Advancing Translational Sciences (NCATS), 2021).
In all, about 48,000 compounds went through this assay and about 120 (0.25%) were called active. About 4% were inconclusive and are not listed. The call rests on the fitted dose curve; in most records, active means well fitted activation curve with a large enough effect; inconclusive means small, poorly fitted or top-dose-only effect, or another doubt; inactive means no such curve, though single readings can be large or run the other way. Some of the results follow.

Test: Primary qHTS for Identification of Small Molecule Activators of Huntingtin-Antisense Promoter Activity; further: nearly all actives have a fitted effect of over 55% in size
Details: HEK293 HTT-AS promoter firefly luciferase reporter, 24 h; series mostly up to 57.5 µM; activity change, positive = activation: at the top concentration
Method in brief: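 Firefly luciferase signal from promoter-reporter HEK293 cells was scaled between vehicle (0%) and zero RLU (-100%). Compounds were tested at final concentrations of up to 57.5 uM over 24 h at 37 degrees C. PTC124 at 50 uM final served as control inhibitor.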

Activity change, positive = activation, inactive:
Cc1ccc(Cn2cc(S(=O)(=O)c3ccc(C)cc3)c(=O)c3cc(F)c(N4CCCC4)cc32)cc1 -4.59%
CCOc1cccc(NC(=O)c2ccc(F)c(S(=O)(=O)N(CC)c3cccc(C)c3)c2)c1 -29.9%
Cc1ccc(CNC(=O)C2CCN(C(=O)c3cnn(-c4ccccc4)c3-n3cccc3)CC2)cc1 -39.2%
C[C@H](O)C(=O)Nc1c(I)c(C(=O)NC(CO)CO)c(I)c(C(=O)NC(CO)CO)c1I -3.14%
COCCN1Cc2cccc(C(=O)Nc3ccc(Cl)cc3Cl)c2C1=O -21.6%
CC(=O)N1CCc2c(sc3c2c(=O)n(CCc2ccccc2)c(=O)n3Cc2cccc(C)c2)C1 -35.6%
O=c1c(=O)n(Cc2c(F)cccc2Cl)ccn1Cc1ccccc1 -4.92%
CC(C)NC(=O)Cn1nc(N2CCN(c3ccccc3)CC2)ccc1=O -9.42%
COc1ccc2oc(-c3ccc(C)c(NC(=O)CSc4ccc(Cl)cc4)c3)nc2c1 3.34%
CCOc1cc(C2C(C(=O)OC)=C(C)NC3=C2C(=O)c2ccccc23)c(Br)cc1O (stereo not given) -18.3%
CC(=O)N1c2ccc(S(=O)(=O)N3CCN(c4cccc(Cl)c4)CC3)cc2CC1C (stereo not given) -19.9%
Cc1ccc(-c2c3c(=O)n(C)c(=O)n(C)c3cn2-c2cc(C)ccc2O)cc1 -12.6%
COc1ccc(N2CCN(C3C(=O)c4ccccc4N3C(C)=O)CC2)cc1 (stereo not given) -14.3%
COc1cccc(NC(=O)Cn2c(=O)n(CC(=O)NCCc3ccccc3)c(=O)c3sccc32)c1 -15.9%
CN(C1CCc2c(c3ccccc3n2CC(=O)O)C1)S(=O)(=O)c1ccc(F)cc1 (stereo not given) -2.92%
Cc1ccc(NC(=O)c2oc3ccc(S(=O)(=O)N4CCC5(CC4)OCCO5)cc3c2C)c(C)c1 -40%
COCCn1c(SCC(=O)Nc2ccc(C(F)(F)F)cc2)nc2c([nH]c3ccccc32)c1=O -17.7%
O=c1cc[nH]c(=S)[nH]1 10.8%
O=C(NCc1ccc2c(c1)CCN2C(=O)c1ccccc1)c1ccco1 -8.53%
O=C(Nc1ccc(S(=O)(=O)N(Cc2ccccc2)c2ccccc2)cc1)c1ccc([N+](=O)[O-])cc1 -11%
Cc1ccc(NC(=O)C(=O)NCCc2csc3nc(-c4ccccc4C)nn23)cc1Cl -3.79%
O=C(NCc1ccccc1Cl)c1ccc(NC(=O)N2CCSc3ncccc32)cc1 -14.2%
COc1ccc(C)cc1NC(=O)Cn1c(=O)oc2cc(S(=O)(=O)NCc3ccccc3)ccc21 -34.6%
COc1ccc2c(c1)CC(C(=O)NCCN1CCN(c3cccc(C)c3C)CC1)CO2 (stereo not given) -20.4%
CC(C)CCNC(=O)Nc1cc(C(=O)NCc2cccc(F)c2)ccc1N1CCCC1 -5.19%
COc1ccc2c(c1)c1c(c(=O)n(Cc3ccccc3)c(=O)n1CC(=O)Nc1ccc(C)cc1C)n2C -4.48%
O=C(Nc1nnc(S(=O)(=O)N2CCCCCC2)s1)c1ccccc1Br -12.1%
c1ccc(CCNc2nc(-c3ccccc3)cs2)cc1 17.3%
Cc1ccc(NC(=O)C2CCCN(S(=O)(=O)c3c(C)n[nH]c3C)C2)cc1C (stereo not given) -13.9%
CSc1cccc(NC(=O)C2CCN(S(=O)(=O)c3ccc4[nH]c5c(c4c3)CCCCC5)CC2)c1 -25.2%
CCOC(=O)c1ccc(CN(Cc2ccc(C)cc2)S(=O)(=O)c2ccc(NC(C)=O)cc2)cc1 -17.6%
COCCCNC(=O)CN1C(=O)CSc2ccc(S(=O)(=O)N3CCOCC3)cc21 -15.4%
CCCS(=O)(=O)N1CC(=O)N(c2ccc(Cl)cc2)C(C)(C(=O)NC2CCCC2)C1 (stereo not given) -1.38%
CCn1cc2nc(SCc3ccc(F)cc3)n(Cc3ccc(Cl)cc3)c(=O)c2n1 8.91%
CC(=O)Nc1ccc(Nc2nnc(-c3ccc(C)c(S(N)(=O)=O)c3)c3ccccc23)cc1 -5.05%
Cc1nc(SCc2ccc(Cl)cc2)c(C#N)c(C)c1Cl -8.24%
CCOc1cc2[nH]c(=O)n(CCCC(=O)N3CCN(c4cccc(Cl)c4)CC3)c(=O)c2cc1OCC -33.1%
CC(C)CC(=O)N[C@H](C(=O)N[C@H](C(=O)N[C@@H](CC(C)C)[C@@H](O)CC(=O)N[C@@H](C)C(=O)N[C@@H](CC(C)C)[C@@H](O)CC(=O)O)C(C)C)C(C)C -5.25%
COc1ccc(OC)c(NC(=O)N2CCC(CN3CCCCC3)CC2)c1 -6.63%
COc1ccc(OC)c(CNc2sc3c(c2C(=O)Nc2cc(OC)ccc2OC)CCCC3)c1 -25.3%
CC(C)Cn1cc(C(=O)N2CCN(c3cccc(Cl)c3)CC2)c2c3ccccc3n(C)c2c1=O -35.2%
CC(=O)N1CCCc2cc(S(=O)(=O)N3CCCC(C(=O)Nc4cccc(Cl)c4C)C3)ccc21 (stereo not given) -31.4%
CCOC(=O)c1cnc2ccc(OCC)cc2c1Nc1cc(Cl)c(OC)cc1OC -4.36% [at 11.5 µM, percent change from vehicle, -100% = no light]
Cc1ccc(C)c(OC(=O)CSc2nnc(-c3ccc4c(c3)OCO4)o2)c1 -17.2%
CCCCc1ccc(NC(=O)c2ccc3c(c2)CCN3S(=O)(=O)c2ccccc2)cc1 2.35%
CCOc1cc(C(=O)Nc2ccc(S(=O)(=O)Nc3cc(OC)nc(OC)n3)cc2)cc(OCC)c1OCC -5.8%
COC(=O)c1ccc(Cn2c(SCC(=O)N(C)c3ccccc3)nc3ccccc32)cc1 -15.2%
CCC1=C(c2ccc(C)cc2)S(=O)(=O)N=C1N1CCC(C(=O)NCc2ccccc2Cl)CC1 -35.3%
CCCN(CCC)CCNC(=O)C1CCCN(S(=O)(=O)c2cccc3nsnc23)C1 (stereo not given) 2.21%
CCCCCOC(=O)c1ccc(OC(=O)c2sc3ncn(Cc4cccc(F)c4)c(=O)c3c2C)cc1 -1.48%
Cc1ccc(C)c(N2CCN(CCCNC(=O)c3nnc(Cc4ccc(F)cc4Cl)o3)CC2)c1 -38.2%
Nc1ccn([C@@H]2O[C@H](CO)[C@H](O)C2(F)F)c(=O)n1 -22.7%
CCOCCCNC(=O)C(c1ccc(Cl)cc1)N(Cc1cccs1)C(=O)c1ccc(NC(C)=O)cc1 (stereo not given) -11.6%
CCC(=O)N1CCc2cc(Br)cc(S(=O)(=O)CCC(=O)N(CC)Cc3ccccc3)c21 -0.226%
CC(C)(Oc1ccc(Cl)cc1)C(=O)Nc1nc2ccc(S(C)(=O)=O)cc2s1 3.73% [at 11.5 µM, percent change from vehicle, -100% = no light]
CN(C)c1ccc(C(CNC(=O)c2c(F)cccc2Cl)N2CCOCC2)cc1 (stereo not given) -6.19%
COc1ccc(Cl)cc1NC(=O)NCC1CCN(Cc2ccccc2F)CC1 -10.4%
CC(=O)N1CCc2cc(CNS(=O)(=O)c3ccc(Cl)s3)ccc21 6.44%
COc1ccc(-n2c(=O)c3c4c(sc3n3c(SCCC(C)C)nnc23)COC(C(C)C)C4)cc1 (stereo not given) 2.03%
COc1cc(OC)cc(C(=O)Nc2ccc3oc(-c4cccc5c(Br)cccc45)nc3c2)c1 -5.64%
CN1C(=O)C2(SCC(=O)N2c2ccc(F)cc2)c2ccccc21 (stereo not given) 3.01%
CCOc1ccc(OCC)c(NS(=O)(=O)c2cc(-c3onc(C)c3C)ccc2OC)c1 2.02%
COc1ccc(CCC(=O)NCCc2csc(-c3ccc(Cl)cc3)n2)cc1 -23.5%
COCCNC(=O)CSc1nc(-c2ccccc2C)nc2c1c(=O)n(C)c(=O)n2C 8.31%
NS(=O)(=O)c1ccc2nc(NC(=O)COc3ccccc3)sc2c1 -4.52%
Cc1ccc(NC(=O)c2nc(S(C)(=O)=O)ncc2N(Cc2ccco2)Cc2ccco2)cc1C -27.4%
CCCN(CCC)C(=O)c1cc2c(=O)n3cccc(C)c3nc2n1C -7.64%
Cc1ccc2cccc(NC(=O)c3ccc(-c4cccc(Cl)c4)o3)c2n1 7.55%
Cc1ccc(NC(=O)Cn2c(=O)oc3cc(S(=O)(=O)N4CCCCCC4)ccc32)cc1Cl -42.2%
CCOc1ccc(Nc2c(S(=O)(=O)c3ccccc3)cnc3ccccc23)cc1 -24.6%
CC(C)C(NS(=O)(=O)c1ccc2c(c1)oc(=O)n2C)C(=O)NCCc1ccc(Cl)cc1 (stereo not given) 20.1%
Cc1ccc(-c2nnc(Nc3ccc(S(N)(=O)=O)cc3)c3ccccc23)cc1S(=O)(=O)N1CCCCC1 -25.5%
Cc1ccc(C)c(Cn2c(=O)cc(C)c3c(C)nn(C)c32)c1 -26.9%
CC1(C)CCC[C@@]2(C)[C@@H]1CC[C@@]1(C)OC(=O)C[C@H]21 -5.6%
CCn1c(C)c(C)c2cc(C(=O)NCc3cccc(C)c3)ccc21 -6.58%
COc1ccc(NC(=O)/C=C\C(=O)N(c2ccc(C(C)C)cc2)C(C(=O)NCc2ccco2)c2ccc(F)cc2)cc1 (stereo not given) -44.8%
O=C(c1ccccc1)N(Cc1ccco1)Cc1cccs1 -24%
Cc1cccc(C(=O)Nc2ccc(C(=O)OCc3cc(=O)n4nc(CC(C)C)sc4n3)cc2)c1 11.9%
COc1cccc(CNC(=O)CCc2c(C)c3cc4c(C)coc4c(C)c3oc2=O)c1 -24.3%
COc1ccc(OCC(=O)N2CCN(C(=O)c3cccc(OC)c3)CC2)cc1 1.77%
CCc1ccccc1NC(=O)CCS(=O)(=O)c1cccc2nonc12 14.6%
Cc1ccc(-n2ncc3c(N4CCN(C)CC4)ncnc32)cc1C -16.9%
COc1ccccc1NC(=O)c1sc2nc(C)c(C(=O)Nc3ccc(C)cc3C)c(-c3ccc(C)o3)c2c1N -12.1%
CCN1CCN(CCCNC(=O)c2ccc3nc(Cc4ccccc4)oc3c2)CC1 -4.64%
COc1ccc(N2CCN(C(=O)c3cc(S(=O)(=O)N4CCC(C)CC4)cn3C)CC2)cc1 -20.2%
CCN(C(=O)C1CCN(c2ncnc3c2nc2n3CCCCC2)CC1)c1cccc(Cl)c1 -22.4%
Cc1cccc(N2CCN(c3nc4ccc(C)cc4n4cnnc34)CC2C)c1 (stereo not given) 1.7%
COc1ccc(-n2ccnc(NCc3ccc(C)cc3)c2=O)cc1OC -13%
O=C(NCC(c1ccc2c(c1)OCO2)N1CCOCC1)c1c(F)cccc1F (stereo not given) 1.6%
CCOc1ccccc1N(CC)C(=O)c1noc2c1COc1ccc(C)cc1-2 -32.8%
